Measured values reported in the supplement of paper PMC12217912.
The list shows a part of the results. The full chains were built here from the parent and the listed change. Values near 0.05 are background.

B1: TEV protease; numbered along this chain (parent)
chain: MGESLFKGPRDYNPISSSICHLTNESDGHTTSLYGIGFGPFIITNKHLFRRNNGTLVVQSLHGVFKVKDTTTLQQHLVDGRDMIIIRMPKDFPPFPQKLKFREPQREERICLVTTNFQTKSMSSMVSDTSCTFPSGDGIFWKHWIQTKDGQCGSPLVSTRDGFIVGIHSASNFTNTNNYFTSVPKNFMELLTNQEAQQWVSGWRLNADSVLWGGHKVFMVKPEEPFQPVKEATQL

Variants of: B1
Test: raw area under fraction-flipped curve 0-4 h after induction (AUC4h, not background-subtracted), DNA-recorder readout of cleavage of the substrate (dimensionless); higher = more cleavage of the substrate by the protease variant
Settings: temperature: 34 °C; time window: 0-4 h after rhamnose induction
Experimental: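 In vivo DNA recorder in E. coli TOP10(DE3) ΔrhaA at 34 °C. Each TEVp single-site mutant (parent TEVp 0) is paired with a single-site variant of the 7-mer TEVs (canonical ENLYFQ|S). The substrate sits between flexible linkers in a Bxb1-sfGFP-TEVs-SsrA fusion, so cleavage stabilises Bxb1 and speeds flipping of a recombination array, read by NGS. The value is the raw area under the fraction-flipped curve over 0-4 h after rhamnose induction (AUC4h), with ≥20 reads per time point. It is not background-subtracted; inactive controls average about 0.047.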
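Further: Bxb1 expression induced with 0.2% (w/v) L-rhamnose at OD600 near 0.5, cultures sampled hourly, flipped fraction per protease–substrate barcode pair counted by paired-end Illumina sequencing.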

| Variant | area with substrate ANLYFQS | area with substrate CNLYFQS | area with substrate DNLYFQS | area with substrate FNLYFQS | area with substrate GNLYFQS | area with substrate HNLYFQS | area with substrate INLYFQS | area with substrate KNLYFQS | area with substrate LNLYFQS | area with substrate MNLYFQS | area with substrate NNLYFQS | area with substrate PNLYFQS | area with substrate TNLYFQS | area with substrate WNLYFQS | area with substrate YNLYFQS | area with substrate VNLYFQS | area with substrate QNLYFQS | area with substrate SNLYFQS | area with substrate RNLYFQS |
| --- | --- | --- | --- | --- | --- | --- | --- | --- | --- | --- | --- | --- | --- | --- | --- | --- | --- | --- | --- |
| A196L | 0.109 | 0.069 | 0.0761 | 0.0493 | 0.04 | 0.0745 | 0.0442 | 0.076 | 0.0722 | 0.0769 | 0.0604 | 0.0753 | 0.0661 | 0.058 | 0.0682 |  |  |  |  |
| F163V | 0.0879 | 0.0528 | 0.121 |  | 0.0633 |  | 0.0517 |  | 0.0654 |  | 0.0695 | 0.0721 | 0.0932 | 0.0798 |  | 0.0641 |  |  |  |
| F163R | 0.0476 | 0.0762 | 0.0973 | 0.0511 | 0.064 | 0.0774 | 0.0634 |  | 0.0795 | 0.0495 | 0.0801 | 0.0783 | 0.0839 | 0.0677 | 0.0504 |  | 0.0697 | 0.0645 |  |
| F187E | 0.0607 | 0.0526 | 0.046 |  |  | 0.0452 | 0.0555 | 0.0586 | 0.0353 | 0.0488 |  |  | 0.0579 | 0.0523 | 0.0554 |  | 0.0521 | 0.0676 | 0.0587 |
| F187I | 0.0722 | 0.0862 | 0.0604 |  | 0.0732 | 0.0694 | 0.0421 | 0.171 | 0.057 |  |  | 0.0655 | 0.0765 | 0.0636 |  | 0.0682 | 0.066 | 0.044 |  |
| F187Q | 0.0368 | 0.061 | 0.0604 | 0.0462 |  | 0.019 |  |  | 0.0466 | 0.0711 |  | 0.0585 | 0.0576 | 0.0498 | 0.0592 | 0.0226 |  | 0.0593 |  |
